# Laboratory results: the supplement of paper PMC11417369
# ± gives the standard deviation of the averaged measurements. The list shows a part of the results.
# Test system: PfAP2-G AP2 domain (GST-tagged)
# Experiment: gcPBM binding intensity (ln(normalized median fluorescence intensity)); higher = stronger DNA binding
# Procedure, shortened: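 Plasmodium falciparum DNA-binding domains carrying a GST tag were expressed in E. coli and applied for 1 h, at about 25 μg on average, to an Agilent 4 × 180k array. The array held primer-extended double-stranded 36-bp intergenic genomic probes together with negative controls, and binding took place in 1× PBS with 1% milk, 0.2 mg/ml BSA, 0.5% salmon testes DNA and 0.03% Triton X-100. An Alexa488 anti-GST antibody detected bound protein, and the array was scanned at 488 nm. Binding intensity is taken as the highest Masliner-normalised natural-log median intensity across replicate spots of either probe orientation.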
row,Sequence,gcPBM binding intensity (ln)
1,ATATTTTATTTTCCATGTACACAAAAAAAAAAAAAA [XGTACX_site8327],11.4 ± 0.96
2,TAATATATAAGAAACAAAAAAAAATAAAAATATATA [TGCATGCA_negctrl_site153],9.47 ± 0.39
3,TAAAATAATTCGTAACGTACATATGTAATATAATAT [XGTACX_site6126],11.1 ± 0.62
4,CGCATACACGGACACACACACACATATATATATATA [CACACA_site4520],11.3 ± 0.7
5,AAAAAAAAAAAACACACACACACACTAATATATAAA [CACACA_site8302],10 ± 0.34
6,ATATTACAACGTAACGAATATTTCATAAATTCTTAA [CACACA_negctrl_site770],9.705 ± 0.078
7,AGCTCTATATTTTACACATGCGATTTGGATATATAT [TGCATGCA_site105],10.01 ± 0.035
8,TAAATATATATCATCACACACACATACATAAATATA [CACACA_site183],10 ± 0.2
9,CCTTTATATTATAAAAGTACATAATATTTTATAAGT [XGTACX_site1629],11.5 ± 1
10,ATTTCTCAATCGTAATGTACAAAAAAAAGGAAAAAA [XGTACX_site1193],10.7 ± 0.53
11,TTATATAGATGGAATAGTACAGTATATATATATATA [XGTACX_site8755],11.3 ± 0.76
12,AAGGTTATATAAAAAAGTACGCATAAGATGTTGTTC [XGTACX_site807],11.3 ± 0.78
13,ATTAGAAAAAAGATAGCACACACGGCCCAATATATA [CACACA_site2417],10.21 ± 0.092
14,TGAAATTTATAATAGTGTACAAAGAAAAAAAAAAAA [XGTACX_site4965],11 ± 0.78
15,TACTGTATTATAATTATGATTGACGAAATTAAAAAT [GTGCAC_negctrl_site358],10 ± 0.11
16,ACGACATATGGATGATGTACTATCTTTATTATACAT [XGTACX_site6857],11 ± 0.73
17,TAAATAATGTAAAAAACATCATCAAAATGTTAATTA [CACACA_negctrl_site1768],9.415 ± 0.078
18,TCTCAAAAAAAAAAAAAAAAAAAAAAATTAAAAAAT [CACACA_negctrl_site1120],9.4 ± 0.014
19,TTTATGGATGTGTATGCATGCCTAAATAAATATATG [TGCATGCA_site916],10.04 ± 0.057
20,GATGAGGACAAACACACACACATAAGTTGATACATA [CACACA_site3424],11 ± 0.83
21,AGATAGATACATACACGTACATATATATATACACAT [XGTACX_site4755],11.4 ± 0.86
22,CAATATAAAATAAAATGTACTTGTAGTAAAGGGATA [XGTACX_site1452],11.1 ± 0.64

row,Sequence,gcPBM binding intensity (ln)
1,ATAAAGGTTTTCCAAGCATGCCACATAGTGACATAC [TGCATGCA_site193],9.985 ± 0.064
2,TATTACTTGATATATACACACATATAACATAAATGC [CACACA_site7783],10.1 ± 0.25
3,TATAAATATATATATACACACACATACACAAAAAAA [CACACA_site9191],10.3 ± 0.3
4,ATATATTATATGTACACACACATATAAGGGATTATA [CACACA_site5],11.4 ± 0.9
5,TAGAATAAACCAAGAAGTACTGTTTAATGAAAAGTA [XGTACX_site5712],11.1 ± 0.71
6,ATACCTAAAAAATATACACACATATTTATAAATATA [CACACA_site7260],9.98 ± 0.042
7,GTCATATTATTCTTTTCACACACGCGTTAATAATAA [CACACA_site9302],10.4 ± 0.24
8,AAAATAACATAAAAGAGTACTAAACCAAGATCAAAT [XGTACX_site7973],11 ± 0.48
9,TATATTTATATTCTTACATTTTTTATGTTTTTTTTT [CACACA_negctrl_site1017],9.55 ± 0.27
10,TAAACAGACATATAAACACACATATAAACCGACATA [CACACA_site2478],10 ± 0.12
11,TATTATAATATGTAGCGTACATTTTTTCTTTCTTTT [XGTACX_site7831],11.1 ± 0.61
12,ATAAATCAAATGCACACACACAAAAAAAAAAAAAAA [CACACA_site6221],9.96 ± 0.46
13,TACAAAAATATATAAACACACAAATATAATATATAT [CACACA_site2942],9.735 ± 0.078
14,TAATAAATGACAAATTAACACACATATATTATATAT [CACACA_site9294],9.835 ± 0.078
15,CGCTCTCTTTAATATTGTACATATATATTATATATA [XGTACX_site7017],11.1 ± 0.61
16,TTTTTTTTTTTTTTTTGTACATAATAAATGTTCTTA [XGTACX_site6754],10.8 ± 0.88
17,TGTATCTATAATAAAACACACATTTTTAATGTGCTC [CACACA_site6788],9.71 ± 0.071
18,TATATATAATATTTTTCACACACCATTTCCTTAAAC [CACACA_site1341],10.2 ± 0.16
19,TGTGCGGAAATAAGTGCACACATAGATATATGTATT [CACACA_site9227],10.4 ± 0.29
20,TATTTTGTATTCATTTGTCACATATAATAGATAGGA [TGCATGCA_negctrl_site9],10.1 ± 0.18
21,AATATATGTATATCCACACACATATATATATATATA [CACACA_site1633],10.1 ± 0.21
22,ATAGATATAACATATGCATGTAAAATATAACCACTC [TGCATGCA_site60],10.3 ± 0.29

row,Sequence,gcPBM binding intensity (ln)
1,TTATACGAAGTACGTACACACACTTATATGTTACTA [CACACA_site4019],11.6 ± 0.94
2,AATAAATAGAAAGAGGTGCTACATTATATTATTTAT,9.73 ± 0.23
3,ACATATTTATATGTCTGTACAAATATGCAATTTTTT [XGTACX_site5516],10.7 ± 0.4
4,TTAGATAGATTTGTACGTACTTATTATAACGTATCA [XGTACX_site5067],11.6 ± 0.75
5,AATTTATAAATAATTAATTTGATAAATTATAAAGGG [GTGCAC_negctrl_site544],9.98 ± 0.16
6,TTTTATTATATATATTGTACATATATTTTTATTTTT [XGTACX_site1564],11 ± 0.41
7,AAAAAAAAAAATGGCTGTACATAATATTTAAATAGG [XGTACX_site4286],11.2 ± 0.67
8,GGATAATCATACGAAGCATGCTGAATTTCCAAATAA [TGCATGCA_site1013],9.755 ± 0.021
9,AAAAAAATTAAATGGGGTACAATAAGGGTCAAATAT [XGTACX_site8669],11.6 ± 0.93
10,ATAATTTTTTAGATCACACATATAAATAAATAAATA [CACACA_site5175],9.97 ± 0.14
11,TTATATTAGCCGATGGTGCATATATTTATAGGAAAA [GTGCAC_site9518],9.9 ± 0.13
12,ATATTTATAACTTGGTGTACTTTGAAAAAAAAAAAA [XGTACX_site5194],11.4 ± 1
13,AAAAAAAAAAAAAACACACATACATACATACATATA [CACACA_site4121],9.95 ± 0.14
14,TTACATATATTGGGGTGTACATATATTTTCCTTCAC [XGTACX_site6224],11.4 ± 0.91
15,AAAAAAAAAAAAAAAAGTACACATAATTGTATATGT [XGTACX_site6339],11.7 ± 0.75
16,TGTAGATATTTTTGGGGTACTTTATAAAGAACTAGT [XGTACX_site5635],11.6 ± 0.96
17,GTTATATGAACTTATATACACACCATTTTTGTAAAT [CACACA_site695],10.09 ± 0.042
18,AAATCATATTCTTATTTTATTTTTTTTATTTTTTAT [XGTACX_negctrl_site166],9.55 ± 0.17
19,GAAAAACAAATATATTAACACACAAACATATAAACA [CACACA_site9315],10.1 ± 0.13
20,ATATTTTATATATTTGTGCACAATATTATAATATAT,10.4 ± 0.2
21,AAATATTGTTTTTTATGTACTTATTTTTATTTATTT [XGTACX_site3481],11.4 ± 0.79
22,ATGAAAAAGTGCTGGATTCTAAAGAAAAAAAAAAAA [CACACA_negctrl_site962],10 ± 0.37

row,Sequence,gcPBM binding intensity (ln)
1,ATAAAATCAACAAATCAGGATGTCACGTAAATATCA [CACACA_negctrl_site1009],10.1
2,TATTTAGAAATAAATACACACATACATTTTTGTATA [CACACA_site4557],9.835 ± 0.007
3,GGTATATATTCTATCACACATATTTCCATGAAAATA [CACACA_site4728],10.1 ± 0.17
4,TTAATTATATTATGCACACACAATTGGAAAAAAAAT [CACACA_site1958],10.2 ± 0.26
5,GTTTATTTTTTCATTTGTACACATAAATAAATATAT [XGTACX_site7752],11.5 ± 0.75
6,TATACAAACTATGATGCACACATATATATATGTATA [CACACA_site8327],9.885 ± 0.064
7,AAAAAAAATTTTCTTCTGTTGTATTTTTTATACGTT [GTGCAC_negctrl_site477],9.76 ± 0.29
8,ACGTTAGGCTTATTTGCACACTTGTATTAAAATTTT [CACACA_site4854],10.5 ± 0.14
9,AAAAATATGCTTCCATGTACTTAAAAAAAAAATTTA [XGTACX_site3617],11 ± 0.64
10,TCAACTTGATTTATATGTACACATATAAGTAATTAT [XGTACX_site1798],11.4 ± 1
11,AAAAAAAAGAAAAAAACACACAATGGAAAAAATGTA [CACACA_site3675],9.825 ± 0.049
12,AAAAAATTAACGAGTGCACACATATTTAGATAAAAT [CACACA_site8958],10.5 ± 0.28
13,ATATATATATATATAACACACGTGTATTTATCTGTA [CACACA_site5922],10.2 ± 0.15
14,AATCTAATTAAAATCACACATATATTCGTCGTAATA [CACACA_site5855],9.74 ± 0.13
15,GCACATATATATGAAACACACATGGAAACATCTCTT [CACACA_site3966],9.97 ± 0.085
16,ATTCAAAAAAAATCAACACACAGTTACATAGCTCAA [CACACA_site2234],9.82 ± 0.028
17,ATTCCATAAGTAAACACACAAATGCCAAAATTTTAT [CACACA_site7491],10.01 ± 0.085
18,ATATATATATATATGTGTACACAAAAAATATTATAT [XGTACX_site5741],11.6 ± 0.83
19,AAATATTATCAAACATAAATTATTTTTATCCGTATA [CACACA_negctrl_site771],9.65 ± 0.2
20,ATGGAAAAAAAGCATTGTACATTTAAAGAAAAACAG [XGTACX_site6639],10.9 ± 0.28
21,TATTATATTTGTATGTGTACTTATATGGTTGTAATA [XGTACX_site4548],11.4 ± 0.9
22,AACGAAAACACTACGTGTACCAAATGTCCTGCCAAC [XGTACX_site5735],11 ± 0.57
